The source of these data is a protein production outcome set (Wang et al. 2014).

The nature of the data set: label from the status in PepcDB records.

For “MESMKPMYRSRSWRRKYVRTPGGRVVVHFERKKPKIAHCAICGRPLNGIPRGRPVEMRKLPKTKKRPERPMPYLCPRCMRRVMKEQIRSQIMKGLEHHHHHH”, the protein production entry is given as “failed”.
The same measure for “MEHYISLFVKAVFVENMALAFFLGMCTFIAISKKVETAIGLGIAVIVVQTITVPANNLIYTYLLKDGALAWAGLPEVDLSFLGLLSYIGVIAAIVQILEMLLDKYVPSLYNALGVFLPLITVNCAIMAGSLFMVERDYNLAESTVYGVGSGFSWALAIAALAGIREKLKYSDVPEGLQGLGITFITIGLMSLGFMSFSGVQL”: “failed”.
